# This is one part of the list.
# Target: T1, MBP-FoxP1dN (Mus musculus, UniProt P58462 326-579)
# T1 sequence: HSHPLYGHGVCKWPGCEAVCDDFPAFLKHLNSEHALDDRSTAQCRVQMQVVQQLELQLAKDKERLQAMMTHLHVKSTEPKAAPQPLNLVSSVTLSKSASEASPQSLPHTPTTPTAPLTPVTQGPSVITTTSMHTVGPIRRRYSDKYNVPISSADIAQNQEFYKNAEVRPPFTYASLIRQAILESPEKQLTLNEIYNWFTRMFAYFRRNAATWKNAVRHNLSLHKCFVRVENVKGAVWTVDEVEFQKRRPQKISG
# Experiment: PD-seq (MBP pull-down with sequencing); 20 mM Tris-HCl pH 7.5, 100 mM NaCl, 1.5 mM MgCl2, 0.4 uM protein, 0.1 uM dsDNA library, 30 min, room temperature, amylose pull-down; high values mean tight binding
# Conditions: protein: recombinant; tags: His6-MBP; chain copies: 2; dsDNA, one strand shown
# Outline: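 E. coli-expressed mouse FoxP3 or FoxP1 fragment, N-terminus removed and tagged with His6-MBP, was used at 0.4 µM against 0.1 µM of a Klenow-filled degenerate double-stranded DNA library. After 30 min at room temperature in Tris pH 7.5 buffer with NaCl and MgCl2, complexes were pulled down on amylose resin and washed three times. Binding is pull-down over input reads-per-million enrichment from pooled replicates of the proteinase K-released, PCR-barcoded, Illumina-sequenced DNA.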
row,Sequence,binding signal
1,GATGATTGTTCTCCCAGCTGATGAATTTGTACCTTCGAGTAAACAAATTTTCCTAATCTTTCTGTTCAAGCGCCATCTAC,1.13 RPM ratio (pull-down/input)
2,GATGATTGTTCTCCCAGCTGATGAATTTACTGTGTCGAGTAAACAAATTTTCCTAATCTTTCTGTTCAAGCGCCATCTAC,1.12 RPM ratio (pull-down/input)
3,GATGATTGTTCTCCCAGCTGATGAATTGCGATGGTCGAGTAAACAAATTTTCCTAATCTTTCTGTTCAAGCGCCATCTAC,1.06 RPM ratio (pull-down/input)
4,GATGATTGTTCTCCCAGCTGATGAATTTAGGTAATCGAGTAAACAAATTTTCCTAATCTTTCTGTTCAAGCGCCATCTAC,1.42 RPM ratio (pull-down/input)
5,GATGATTGTTCTCCCAGCTGATGAATTTAGTCAATCGAGTAAACAAATTTTCCTAATCTTTCTGTTCAAGCGCCATCTAC,1.18 RPM ratio (pull-down/input)
6,GATGATTGTTCTCCCAGCTGATGAATTTGGCGACTCGAGTAAACAAATTTTCCTAATCTTTCTGTTCAAGCGCCATCTAC,0.836 RPM ratio (pull-down/input)
7,GATGATTGTTCTCCCAGCTGATGAATTCCGGAATTCGAGTAAACAAATTTTCCTAATCTTTCTGTTCAAGCGCCATCTAC,0.847 RPM ratio (pull-down/input)
8,GATGATTGTTCTCCCAGCTGATGAATTCCTTACATCGAGTAAACAAATTTTCCTAATCTTTCTGTTCAAGCGCCATCTAC,0.965 RPM ratio (pull-down/input)
9,GATGATTGTTCTCCCAGCTGATGAATTACTAGCCTCGAGTAAACAAATTTTCCTAATCTTTCTGTTCAAGCGCCATCTAC,0.952 RPM ratio (pull-down/input)
10,GATGATTGTTCTCCCAGCTGATGAATTGTTATAGTCGAGTAAACAAATTTTCCTAATCTTTCTGTTCAAGCGCCATCTAC,1.43 RPM ratio (pull-down/input)
11,GATGATTGTTCTCCCAGCTGATGAATTGTGCGAGTCGAGTAAACAAATTTTCCTAATCTTTCTGTTCAAGCGCCATCTAC,0.955 RPM ratio (pull-down/input)
12,GATGATTGTTCTCCCAGCTGATGAATTAAGCCTCTCGAGTAAACAAATTTTCCTAATCTTTCTGTTCAAGCGCCATCTAC,0.897 RPM ratio (pull-down/input)
13,GATGATTGTTCTCCCAGCTGATGAATTACAGAACTCGAGTAAACAAATTTTCCTAATCTTTCTGTTCAAGCGCCATCTAC,1.01 RPM ratio (pull-down/input)
14,GATGATTGTTCTCCCAGCTGATGAATTGGCAGTTTCGAGTAAACAAATTTTCCTAATCTTTCTGTTCAAGCGCCATCTAC,0.842 RPM ratio (pull-down/input)
15,GATGATTGTTCTCCCAGCTGATGAATTAGCTTCTTCGAGTAAACAAATTTTCCTAATCTTTCTGTTCAAGCGCCATCTAC,1 RPM ratio (pull-down/input)
16,GATGATTGTTCTCCCAGCTGATGAATTCTCGAAATCGAGTAAACAAATTTTCCTAATCTTTCTGTTCAAGCGCCATCTAC,0.871 RPM ratio (pull-down/input)

row,Sequence,binding signal
1,GATGATTGTTCTCCCAGCTGATGAATTTAATTCTTCGAGTAAACAAATTTTCCTAATCTTTCTGTTCAAGCGCCATCTAC,0.967 RPM ratio (pull-down/input)
2,GATGATTGTTCTCCCAGCTGATGAATTGAAACTATCGAGTAAACAAATTTTCCTAATCTTTCTGTTCAAGCGCCATCTAC,0.956 RPM ratio (pull-down/input)
3,GATGATTGTTCTCCCAGCTGATGAATTCTGGAATTCGAGTAAACAAATTTTCCTAATCTTTCTGTTCAAGCGCCATCTAC,0.887 RPM ratio (pull-down/input)
4,GATGATTGTTCTCCCAGCTGATGAATTCTGGCGTTCGAGTAAACAAATTTTCCTAATCTTTCTGTTCAAGCGCCATCTAC,0.829 RPM ratio (pull-down/input)
5,GATGATTGTTCTCCCAGCTGATGAATTTCCGTTCTCGAGTAAACAAATTTTCCTAATCTTTCTGTTCAAGCGCCATCTAC,0.843 RPM ratio (pull-down/input)
6,GATGATTGTTCTCCCAGCTGATGAATTCGACTAGTCGAGTAAACAAATTTTCCTAATCTTTCTGTTCAAGCGCCATCTAC,0.754 RPM ratio (pull-down/input)
7,GATGATTGTTCTCCCAGCTGATGAATTGCAATCTTCGAGTAAACAAATTTTCCTAATCTTTCTGTTCAAGCGCCATCTAC,1.32 RPM ratio (pull-down/input)
8,GATGATTGTTCTCCCAGCTGATGAATTCCATAAGTCGAGTAAACAAATTTTCCTAATCTTTCTGTTCAAGCGCCATCTAC,0.896 RPM ratio (pull-down/input)
9,GATGATTGTTCTCCCAGCTGATGAATTCGAACGTTCGAGTAAACAAATTTTCCTAATCTTTCTGTTCAAGCGCCATCTAC,0.852 RPM ratio (pull-down/input)
10,GATGATTGTTCTCCCAGCTGATGAATTACATTACTCGAGTAAACAAATTTTCCTAATCTTTCTGTTCAAGCGCCATCTAC,1.27 RPM ratio (pull-down/input)
11,GATGATTGTTCTCCCAGCTGATGAATTAACACAGTCGAGTAAACAAATTTTCCTAATCTTTCTGTTCAAGCGCCATCTAC,1.1 RPM ratio (pull-down/input)
12,GATGATTGTTCTCCCAGCTGATGAATTGCGTCGTTCGAGTAAACAAATTTTCCTAATCTTTCTGTTCAAGCGCCATCTAC,1.04 RPM ratio (pull-down/input)
13,GATGATTGTTCTCCCAGCTGATGAATTGAGCTAATCGAGTAAACAAATTTTCCTAATCTTTCTGTTCAAGCGCCATCTAC,0.97 RPM ratio (pull-down/input)
14,GATGATTGTTCTCCCAGCTGATGAATTATTTCCCTCGAGTAAACAAATTTTCCTAATCTTTCTGTTCAAGCGCCATCTAC,1.09 RPM ratio (pull-down/input)
15,GATGATTGTTCTCCCAGCTGATGAATTCTTTGTGTCGAGTAAACAAATTTTCCTAATCTTTCTGTTCAAGCGCCATCTAC,1.06 RPM ratio (pull-down/input)

# Source: article PMC12820563, “FoxP3 forms a head-to-head dimer in vivo and stabilizes its multimerization on adjacent microsatellites”
